According to the supplement of paper PMC10126150:
Sequences with one replicate were seen in a single cluster, so their values are uncertain.

These sequences were tested on ATP (assay: switch fluorescence ratio, 500 uM ATP over buffer (Cy3 cluster intensity, sum of 5 cycles each) (fold (ratio)); higher = stronger signal-on switching upon ATP binding; sequences stand for … in TCGTCGGCAGCGTCAGATGTGTATAAGAGACAGTTTTTTTTTTTTTTTTTTTTTTTTT…TC). Conditions: aptamer strand: ATP DNA aptamer (quencher-CACCTGGGGGAGTATTGCGGAGGAAGG + anchor), 100 nM annealed; ATP concentration: 500 uM; one replicate.
How it was run: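 The fluorescence ratio divides summed target-cycle Cy3 intensity by summed buffer-cycle Cy3 intensity for each cluster and is averaged per switch-domain sequence. Cy3-labelled switching-strand clusters on a modified Illumina MiSeq flow-cell were annealed to 100 nM quencher-labelled ATP aptamer, then imaged in selection buffer and again after 15 min with 500 uM ATP at 22 °C. Five such cycles were run, with NaOH stripping and re-annealing between them, and clusters outside 100-1000 RFU were excluded.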
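Also: ATP exposure 15 min at 22 °C before imaging.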

Which switch fluorescence ratio does the source give for TAAAGAACCC here?
Its switch fluorescence ratio is 1.01.

TAAAGCGGGT was tested. Which switch fluorescence ratio did it give?
Its switch fluorescence ratio is 1.02.

TAAAGGTCCA was tested. Which switch fluorescence ratio did it give?
Its switch fluorescence ratio is 1.01.

How did the switch fluorescence ratio turn out when TAAAGGTGC was run?
Its switch fluorescence ratio is 1.2.

How did the switch fluorescence ratio turn out when TAAAGTAGT was run?
Its switch fluorescence ratio is 1.03.

TAAAGTCCTG was tested. Which switch fluorescence ratio did it give?
The switch fluorescence ratio was 0.975.

Which switch fluorescence ratio does the source give for TAAAGTGCA here?
Its switch fluorescence ratio is 0.961.

Which switch fluorescence ratio does the source give for TAAAGTTTG here?
Its switch fluorescence ratio is 0.992.

How did the switch fluorescence ratio turn out when TAAATACTAG was run?
The switch fluorescence ratio was 0.998.

For TAAATAGCGA, which switch fluorescence ratio is on record?
The switch fluorescence ratio was 0.994.

With TAAATATGTA as the sequence, how does the switch fluorescence ratio read?
The switch fluorescence ratio was 0.99.

TAAATCGG was tested. Which switch fluorescence ratio did it give?
The switch fluorescence ratio was 0.976.

For TAAATGCATG, which switch fluorescence ratio is on record?
The switch fluorescence ratio was 1.02.

Which switch fluorescence ratio does the source give for TAAATGGCCC here?
Its switch fluorescence ratio is 1.01.

With TAAATGGTAT as the sequence, how does the switch fluorescence ratio read?
The switch fluorescence ratio was 0.947.

With TAAATTCCAC as the sequence, how does the switch fluorescence ratio read?
Its switch fluorescence ratio is 0.985.

Which switch fluorescence ratio does the source give for TAAATTGTCT here?
The switch fluorescence ratio was 0.99.

For TAAATTTACT, which switch fluorescence ratio is on record?
The switch fluorescence ratio was 1.06.

With TAAATTTCTT as the sequence, how does the switch fluorescence ratio read?
The switch fluorescence ratio was 1.03.

With TAACACAAA as the sequence, how does the switch fluorescence ratio read?
Its switch fluorescence ratio is 1.03.

How did the switch fluorescence ratio turn out when TAACAGCGCA was run?
Its switch fluorescence ratio is 0.997.

With TAACAGTCTT as the sequence, how does the switch fluorescence ratio read?
Its switch fluorescence ratio is 0.994.

With TAACATAGGA as the sequence, how does the switch fluorescence ratio read?
Its switch fluorescence ratio is 1.01.

How did the switch fluorescence ratio turn out when TAACCCAGCT was run?
The switch fluorescence ratio was 1.05.

How did the switch fluorescence ratio turn out when TAACCGAAAT was run?
The switch fluorescence ratio was 1.19.

TAACCGAGTT was tested. Which switch fluorescence ratio did it give?
The switch fluorescence ratio was 1.11.

TAACCGCCTA was tested. Which switch fluorescence ratio did it give?
The switch fluorescence ratio was 1.36.

With TAACCGCTGG as the sequence, how does the switch fluorescence ratio read?
Its switch fluorescence ratio is 1.01.

For TAACCGGAGC, which switch fluorescence ratio is on record?
Its switch fluorescence ratio is 1.53.

How did the switch fluorescence ratio turn out when TAACCGGTTA was run?
Its switch fluorescence ratio is 0.975.

With TAACCTCCGT as the sequence, how does the switch fluorescence ratio read?
The switch fluorescence ratio was 1.21.

With TAACCTTTCT as the sequence, how does the switch fluorescence ratio read?
Its switch fluorescence ratio is 1.71.

How did the switch fluorescence ratio turn out when TAACGACTAC was run?
Its switch fluorescence ratio is 1.29.

Which switch fluorescence ratio does the source give for TAACGAGGCG here?
Its switch fluorescence ratio is 1.01.

With TAACGAGGTG as the sequence, how does the switch fluorescence ratio read?
Its switch fluorescence ratio is 1.03.

Which switch fluorescence ratio does the source give for TAACGAGTCA here?
The switch fluorescence ratio was 1.04.

TAACGATTCC was tested. Which switch fluorescence ratio did it give?
The switch fluorescence ratio was 1.2.

Which switch fluorescence ratio does the source give for TAACGATTGG here?
Its switch fluorescence ratio is 1.03.

How did the switch fluorescence ratio turn out when TAACGCAATG was run?
The switch fluorescence ratio was 5.62.

For TAACGCGAAG, which switch fluorescence ratio is on record?
Its switch fluorescence ratio is 1.03.

Which switch fluorescence ratio does the source give for TAACGCGAGC here?
Its switch fluorescence ratio is 1.09.

How did the switch fluorescence ratio turn out when TAACGGAGCG was run?
The switch fluorescence ratio was 1.53.

How did the switch fluorescence ratio turn out when TAACGGATTA was run?
The switch fluorescence ratio was 1.02.

With TAACGGCGAT as the sequence, how does the switch fluorescence ratio read?
The switch fluorescence ratio was 0.995.

With TAACGGGCTC as the sequence, how does the switch fluorescence ratio read?
The switch fluorescence ratio was 1.02.

Which switch fluorescence ratio does the source give for TAACGTGCTG here?
The switch fluorescence ratio was 1.04.

Which switch fluorescence ratio does the source give for TAACTAAGTA here?
The switch fluorescence ratio was 1.

TAACTAGTTG was tested. Which switch fluorescence ratio did it give?
Its switch fluorescence ratio is 1.01.

With TAACTATGAA as the sequence, how does the switch fluorescence ratio read?
The switch fluorescence ratio was 0.949.

With TAACTCCGG as the sequence, how does the switch fluorescence ratio read?
Its switch fluorescence ratio is 1.06.

Which switch fluorescence ratio does the source give for TAACTTCGAT here?
Its switch fluorescence ratio is 1.01.

Which switch fluorescence ratio does the source give for TAAGAAATAA here?
Its switch fluorescence ratio is 0.99.

TAAGACGGAT was tested. Which switch fluorescence ratio did it give?
Its switch fluorescence ratio is 0.997.

Which switch fluorescence ratio does the source give for TAAGAGGGAT here?
Its switch fluorescence ratio is 1.08.

How did the switch fluorescence ratio turn out when TAAGATGAC was run?
The switch fluorescence ratio was 1.02.

TAAGATGGGA was tested. Which switch fluorescence ratio did it give?
The switch fluorescence ratio was 1.03.

TAAGATTTG was tested. Which switch fluorescence ratio did it give?
Its switch fluorescence ratio is 0.976.

For TAAGCCCCGT, which switch fluorescence ratio is on record?
Its switch fluorescence ratio is 1.05.

With TAAGCCGGG as the sequence, how does the switch fluorescence ratio read?
The switch fluorescence ratio was 1.01.

Which switch fluorescence ratio does the source give for TAAGCGCTTG here?
The switch fluorescence ratio was 1.03.

With TAAGCTAGCC as the sequence, how does the switch fluorescence ratio read?
The switch fluorescence ratio was 1.07.

For TAAGCTATGG, which switch fluorescence ratio is on record?
The switch fluorescence ratio was 1.01.

With TAAGCTCAC as the sequence, how does the switch fluorescence ratio read?
Its switch fluorescence ratio is 1.03.

For TAAGCTCCGA, which switch fluorescence ratio is on record?
Its switch fluorescence ratio is 1.04.

For TAAGGAGTT, which switch fluorescence ratio is on record?
Its switch fluorescence ratio is 0.896.

With TAAGGCCCGC as the sequence, how does the switch fluorescence ratio read?
Its switch fluorescence ratio is 1.05.

For TAAGGCGATC, which switch fluorescence ratio is on record?
Its switch fluorescence ratio is 1.08.

For TAAGGCGGCC, which switch fluorescence ratio is on record?
The switch fluorescence ratio was 0.972.

TAAGGCTGTC was tested. Which switch fluorescence ratio did it give?
Its switch fluorescence ratio is 0.929.

How did the switch fluorescence ratio turn out when TAAGGGCCGA was run?
Its switch fluorescence ratio is 1.

TAAGGTATCA was tested. Which switch fluorescence ratio did it give?
The switch fluorescence ratio was 0.997.

How did the switch fluorescence ratio turn out when TAAGGTCGAA was run?
Its switch fluorescence ratio is 0.967.

TAAGGTTGCT was tested. Which switch fluorescence ratio did it give?
Its switch fluorescence ratio is 0.991.

For TAAGTAATCC, which switch fluorescence ratio is on record?
The switch fluorescence ratio was 1.01.

Which switch fluorescence ratio does the source give for TAAGTAGTCC here?
Its switch fluorescence ratio is 1.03.

For TAAGTATGCT, which switch fluorescence ratio is on record?
Its switch fluorescence ratio is 0.982.

Which switch fluorescence ratio does the source give for TAAGTCAATA here?
Its switch fluorescence ratio is 1.07.

Which switch fluorescence ratio does the source give for TAAGTGGCAC here?
Its switch fluorescence ratio is 1.01.

TAAGTGGTTC was tested. Which switch fluorescence ratio did it give?
The switch fluorescence ratio was 1.

How did the switch fluorescence ratio turn out when TAAGTGTGCA was run?
The switch fluorescence ratio was 0.994.

With TAAGTTAAGG as the sequence, how does the switch fluorescence ratio read?
The switch fluorescence ratio was 0.996.

How did the switch fluorescence ratio turn out when TAAGTTAGGA was run?
The switch fluorescence ratio was 0.976.

With TAAGTTCGGT as the sequence, how does the switch fluorescence ratio read?
The switch fluorescence ratio was 0.966.

Which switch fluorescence ratio does the source give for TAAGTTTCGA here?
Its switch fluorescence ratio is 1.01.

How did the switch fluorescence ratio turn out when TAAGTTTTTG was run?
Its switch fluorescence ratio is 0.999.

Which switch fluorescence ratio does the source give for TAATAACAAC here?
Its switch fluorescence ratio is 0.985.

TAATAACTCG was tested. Which switch fluorescence ratio did it give?
The switch fluorescence ratio was 1.03.

How did the switch fluorescence ratio turn out when TAATAAGCGA was run?
The switch fluorescence ratio was 1.03.

TAATAAGGGA was tested. Which switch fluorescence ratio did it give?
Its switch fluorescence ratio is 1.02.

For TAATACCTGT, which switch fluorescence ratio is on record?
The switch fluorescence ratio was 1.04.

For TAATAGCTGG, which switch fluorescence ratio is on record?
Its switch fluorescence ratio is 1.03.

TAATATCCC was tested. Which switch fluorescence ratio did it give?
Its switch fluorescence ratio is 1.03.

Which switch fluorescence ratio does the source give for TAATATCCCC here?
Its switch fluorescence ratio is 1.03.

TAATATCGTT was tested. Which switch fluorescence ratio did it give?
The switch fluorescence ratio was 0.999.

TAATCAGACT was tested. Which switch fluorescence ratio did it give?
The switch fluorescence ratio was 1.08.

Which switch fluorescence ratio does the source give for TAATCAGTTG here?
Its switch fluorescence ratio is 0.987.

How did the switch fluorescence ratio turn out when TAATCCATA was run?
Its switch fluorescence ratio is 1.03.

For TAATCCATGG, which switch fluorescence ratio is on record?
Its switch fluorescence ratio is 1.03.

With TAATCCGAAA as the sequence, how does the switch fluorescence ratio read?
The switch fluorescence ratio was 2.32.

TAATCGATGC was tested. Which switch fluorescence ratio did it give?
Its switch fluorescence ratio is 0.98.

How did the switch fluorescence ratio turn out when TAATCTAGTT was run?
The switch fluorescence ratio was 0.983.
